# Reference: PubChem BioAssay AID485344 (National Center for Advancing Translational Sciences (NCATS), 2010)
# About 6,900 (2%) of roughly 340,000 compounds were called active. No stated cut-off is given here; in the data, active means inhibition above about 30%; inactive means below that, where a call was filed. The list shows a part of the results, in another mix than the full data. Where no call is shown, the source filed none.
# Biological target: D(2) dopamine receptor (Homo sapiens) (UniProt P14416)
# Experiment: HTS Assay for Allosteric Antagonists of the Human D2 Dopamine Receptor: Primary Screen for Antagonists; further: 0% is about no effect
# Conditions: HEK293 TREx D2 cells, calcium flux, dopamine EC80; at 10 µM; stronger effect = higher value
# Method in brief: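 Calcium mobilization kinetics were recorded at 1 s intervals in tetracycline-induced HEK293 T-REx D2 cells, first for 180 s after compound addition and then 180 s after EC80 dopamine.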
# Sequence of UniProt P14416 (P14416 whole entry, looked up): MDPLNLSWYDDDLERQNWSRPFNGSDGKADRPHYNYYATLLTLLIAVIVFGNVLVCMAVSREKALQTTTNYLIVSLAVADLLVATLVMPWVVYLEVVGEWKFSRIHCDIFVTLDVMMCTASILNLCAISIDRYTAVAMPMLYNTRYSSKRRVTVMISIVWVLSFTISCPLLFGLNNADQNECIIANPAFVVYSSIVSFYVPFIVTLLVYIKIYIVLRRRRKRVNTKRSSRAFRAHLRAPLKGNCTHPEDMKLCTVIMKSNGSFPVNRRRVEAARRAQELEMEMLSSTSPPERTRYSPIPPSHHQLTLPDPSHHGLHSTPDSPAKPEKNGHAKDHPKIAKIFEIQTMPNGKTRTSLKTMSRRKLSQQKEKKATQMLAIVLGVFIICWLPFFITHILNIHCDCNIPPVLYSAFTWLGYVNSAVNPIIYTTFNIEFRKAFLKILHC
row,SMILES,inhibition
1,CCc1ccc(NC(=O)CSC2=Nc3ccccc3C3=NC(CC(=O)NCc4cccs4)C(=O)N23)cc1 (centres undefined),2.59%
2,COc1cccc(N2CCN(C(=O)c3ccc4c(Cl)c5c(nc4c3)CCCC5)CC2)c1,5.98%
3,CCC(=O)N1CCc2cc(Br)cc(S(=O)(=O)N3CCC(C(=O)Nc4cccc(C)c4)CC3)c21,1.06%
4,Cc1cc2c(cc3c(SCc4cccc(Cl)c4)nnc(C)n32)o1,5%
5,CCC(Cn1nnc2ccccc2c1=O)NC(=O)Nc1cc(OC)cc(OC)c1 (centres undefined),1.14%
6,O=C(NCc1ccccc1)c1ccc(CSc2nc3cccnc3n2Cc2ccccc2)cc1,-14.1%
7,Cn1cc(S(=O)(=O)c2ccccc2)c(=O)c2cc(F)c(N3CCCC3)cc21,8.38%
8,COC(=O)C1=C(O)/C(=C\c2cc(C)n(-c3ccccc3C)c2C)N=C1C,active: 32.1%
9,Fc1ccc(N2CCN(c3nnnn3-c3ccccc3)CC2)cc1,active: 50.2%
10,CCc1cccc(C)c1NC(=O)c1cc2ccccc2o1,-12.8%
11,CCc1ccc2nc(N3CCC(C(=O)NCCC(C)C)CC3)sc2c1,-1.45%
12,CCCCNC(=O)c1cnc2c(-c3ccc(OCC)c(OCC)c3)c(C)nn2c1-c1ccccc1,-5.41%
13,CCN(Cc1ccccc1)S(=O)(=O)c1ccc(N2CCCCS2(=O)=O)cc1,-25.9%
14,O=C(CCS(=O)(=O)c1cc2c(cc1Cl)NC(=O)CO2)NCc1ccccc1,28.2%
15,O=C1CCSC2(C(=O)N(Cc3ccccc3)c3ccccc32)N1c1ccccc1 (centres undefined),8.52%
16,CCOC(=O)c1c(C)n(-c2ccc(C)cc2)c2ccc(O)c(CN(C)C)c12,active: 39.7%
17,CCCCOc1ccc(S(=O)(=O)n2nc(C)c(S(=O)(=O)N3CCCCCC3)c2C)cc1,15%
18,COc1cccc2cc(-c3nc4ccc(C)cc4[nH]3)c(=O)oc12,26.7%
19,CC(=O)N1c2ccc(S(=O)(=O)NCC3CCC(C(=O)Nc4cccc(C)c4)CC3)cc2CC1C (centres undefined),-8.88%
20,Cc1ccc(C(=O)NCc2ccccc2CN2CCCC2)cc1S(=O)(=O)N1CCOCC1,active: 51.5%
21,Cc1cc(S(=O)(=O)NCCc2csc(-c3cccc(F)c3)n2)ccc1F,21.3%
22,Cc1ccc(NC(=O)C(=O)NCC(c2ccc3c(c2)OCO3)N2CCN(C)CC2)cc1C (centres undefined),26.1%
23,Cc1c(C(=O)Oc2ccc(Br)cc2)sc2ncn(Cc3ccccc3F)c(=O)c12,-26.6%
24,COc1ccc(-c2cc(C(=O)NCc3ccc(C)cc3)c3cc(C(C)C)ccc3n2)cc1,6.26%

row,SMILES,inhibition
1,CCN(CC)S(=O)(=O)c1ccc2c(c1)c(=O)c(C(=O)N1CCN(c3ccccc3OC)CC1)cn2C,-7.78%
2,CC(C)CCNC(=O)Cn1cc(S(=O)(=O)Cc2ccc(F)cc2)c2ccccc21,3.79%
3,COc1cc(NC(=O)Nc2c[nH]c(=O)[nH]c2=O)cc(OC)c1OC,1.21%
4,Cc1cc(C(C)(C)C)ccc1OC(=O)C1=CC=CN2CCS(=O)(=O)N=C12,active: 40.2%
5,COc1ccc(C(=O)Nc2nc(-c3nnn(-c4cc(OC)ccc4OC)c3C)ns2)cc1,-11.7%
6,Cc1ccc(OCc2cc(=O)n3c(-c4ccccc4)csc3n2)cc1,0.866%
7,CCc1ccc(CNC(=O)c2cc3cc4ccc(OC)cc4nc3o2)cc1,-2.87%
8,CN(C(=O)CSc1nc2ccc(NC(=O)c3cccs3)cc2s1)c1ccccc1,17.2%
9,CCOc1ccc(NC(=O)CSc2nccn2C2CCCC2)cc1,16.3%
10,Cc1ccc(CN2C(=O)CN(C3CCCCCC3)C(=O)C2c2ccc(F)cc2)cc1 (centres undefined),11.2%
11,COC(=O)c1cccc(CN2C(=O)SC(Nc3ccccc3C)C2=O)c1 (centres undefined),1.9%
12,CCc1ccc(CNC(=O)C2CCN(C(=O)c3ccc(-n4c(C)cc5ccccc54)s3)CC2)cc1,7.57%
13,COc1ccc(-n2c(=O)c3c4c(sc3n(CC(=O)C(C)(C)C)c2=O)CCCC4)c(OC)c1,-13.3%
14,Fc1ccc(-c2nnn3c2nc(NCc2ccccc2)c2ccccc23)cc1,-11.6%
15,CCOc1cc(C(=O)Nc2ccc(-c3nnc4n3CCCCC4)cc2)cc(OCC)c1OCC,-15.1%
16,CC(C)OCCCNC(=O)c1ccc(CN2CCc3ccccc3C2)cc1,active: 44.1%
17,Cn1c(=O)n(C)c2cc(N3CCOCC3)c(NS(=O)(=O)c3ccc(F)cc3)cc21,6.6%
18,O=C1CN(C(=O)c2c(F)cccc2Cl)C(c2ccc(F)cc2)c2cc(Br)ccc2N1 (centres undefined),-8.63%
19,Cc1ccc2c(c1)c1c(c(=O)n(-c3ccccc3)c(=O)n1CC(=O)c1ccc(Cl)cc1)n2C,3.89%
20,Cc1ccc(-c2ccc(CCC(=O)O)n2-c2ccc(C)c(Cl)c2)cc1,-15.5%
21,COc1ccc(Cl)cc1C(=O)NCC(c1ccc(N(C)C)cc1)N1CCCC1 (centres undefined),-3.22%
22,O=C(Cn1c(-c2cccs2)cc2cc(Cl)ccc21)N1CCCCC1,4.37%
23,Cc1ccc(C)c(NC(=O)Cn2c(=O)n(CCCS(=O)(=O)C3CCCCC3)c(=O)c3ccccc32)c1,7.77%
24,COCCCNC(=O)CSc1nc2c(sc3ccccc32)c(=O)n1CCc1ccc(OC)c(OC)c1,2.79%

row,SMILES,inhibition
1,COc1ccccc1C(=O)NC1(C(F)(F)F)C(=O)Nc2c1c(=O)[nH]c(=O)n2-c1ccc(F)cc1 (centres undefined),14.5%
2,CCOc1ccccc1NC(=O)CCc1c(C)nn(-c2ccc(N3CCCCC3)nn2)c1C,1.15%
3,Cc1cccc(Cn2c(-c3cccc(Br)c3)nc3ccccc32)c1,17.9%
4,CN(C)CCNC(=O)Cn1ccc2cc(S(=O)(=O)N3CCCCCC3)ccc21,-1.45%
5,COc1ccc(CNC(=O)CSc2ncc3c(n2)-c2ccc(Cl)cc2N(Cc2ccccc2)S3(=O)=O)cc1,5.85%
6,Cc1cc(Cl)ccc1OCC(=O)N(Cc1ccco1)Cc1ccccc1F,-12.2%
7,COc1ccc(Cl)cc1NC(=O)c1cn(C2CCCC2)c(=O)c2c1c1ccccc1n2C,-18%
8,O=C(Nc1ccc(F)cc1)c1ccc2c(=O)n3c(nc2c1)CCCCC3,-14%
9,COc1ccc(OC)c(C2CC(=O)Oc3c2c(=O)n(C)c2ccccc32)c1 (centres undefined),14.8%
10,O=C(NCC(c1cccs1)S(=O)(=O)c1ccccc1)c1ccc(C(F)(F)F)cc1 (centres undefined),8.47%
11,Cc1cccc(N(CC(=O)Nc2ccccc2C(F)(F)F)S(=O)(=O)c2ccccc2)c1C,22%
12,Cc1nn2c(C)c(C(=O)NC(C)c3ccccc3)cnc2c1-c1ccc(F)cc1 (centres undefined),-5.26%
13,CCOc1ccc(NC(=O)Cn2cnc3sc(C)c(S(=O)(=O)N4CCN(c5ccccc5OC)CC4)c3c2=O)cc1,11.1%
14,COc1ccc(NC(=O)c2ccco2)cc1NC(=O)C(C)(C)Oc1ccc(Cl)cc1,12.5%
15,CCC(=O)N1CCCc2cc(S(=O)(=O)N3CCC(C(=O)NCc4ccc(F)cc4)CC3)ccc21,6.6%
16,COc1ccc(C)cc1NC(=O)c1cc2c(=O)n3cccc(C)c3nc2s1,-7.01%
17,COc1ccc(Cl)cc1NC(=S)N1CCN(c2ccccn2)CC1,active: 34.9%
18,Cc1cccc(C)c1-n1ncc(C(=O)O)c1C1CCN(C(=O)OC(C)(C)C)CC1,-4.08%
19,COC(=O)c1cnn(-c2ccc(C)c(C)c2)c1-n1cccc1,active: 30.3%
20,COc1ccc(-c2noc(-c3ccc(N4CCCC4)c([N+](=O)[O-])c3)n2)cc1OC,3.69%
21,CCOc1cc(C2NC(=O)c3c(sc4c3CCN(C)C4)N2)ccc1OC(=O)c1ccc(Br)cc1 (centres undefined),1.24%
22,Cc1ccc(C)c(Nc2nc(-c3ccncc3)nc3ccccc23)c1,active: 35.8%
23,COc1cccc(/C=C/c2nc(C#N)c(N3CCC(C(N)=O)CC3)o2)c1,22.9%
24,Cc1ccc(C2C=C(c3ccccc3)Nc3nc(NS(=O)(=O)c4ccccc4)nn32)cc1 (centres undefined),-16.1%

row,SMILES,inhibition
1,CCOc1ccc(CCNC(=O)c2cn(-c3ccc(OC)cc3)c(=O)c3ccccc23)cc1OCC,-8.46%
2,COc1ccc(Br)cc1S(=O)(=O)Nc1cc(-c2cn3ccccc3n2)ccc1C,1.63%
3,COc1ccc(NC(=O)Cn2c(=O)n(CCC(=O)NCC3CCCO3)c(=O)c3cc(OC)c(OC)cc32)cc1 (centres undefined),-4.45%
4,CN(Cc1ccccc1)C(=O)c1ccc(CSc2nc3cccnc3n2Cc2ccccc2F)cc1,-15.3%
5,COc1ccccc1Nc1sc(C(=O)c2ccc(F)cc2)c(N)c1S(=O)(=O)c1ccc(C)cc1,-0.204%
6,Cc1cccc(CC(=O)N2CC(=O)Nc3ccc(Br)cc3C2c2ccc(F)cc2)c1 (centres undefined),0.739%
7,CCc1cccc(-n2nnc(-c3nsc(NC(=O)c4cccc(OC)c4)n3)c2C)c1,0.809%
8,O=C(Cn1ncc2c3ccccc3n(Cc3ccccc3F)c2c1=O)NCc1ccccc1Cl,7.72%
9,Cc1cc2c(cc1S(=O)(=O)Nc1cccc(C#N)c1)OCC(=O)N2,-6.18%
10,Cc1ccc(C(=O)N/C(=C\c2sccc2C)C(=O)NCCCN2CCOCC2)cc1,active: 31.3%
11,COc1ccc(-n2nc(C(=O)N3CCCCC3C)c3c4ccccc4n(C)c3c2=O)cc1Cl (centres undefined),12.6%
12,N#Cc1ccc(-c2cccs2)nc1SCc1ccc(Br)cc1,-2.92%
13,COc1cccc(C(=O)Nc2ccccc2C(=O)OCc2cc(=O)n3c4c(sc3n2)CCCC4)c1,4.2%
14,COc1ccc(CNC(=O)CN(C)S(=O)(=O)c2ccc3nc(C)sc3c2)cc1,1.42%
15,CCOC(=O)c1ccc(NC(=O)Cn2c(=O)cc(C)c3c(C)nn(-c4ccc(CC)cc4)c32)cc1,0.409%
16,CC(C)N(C(=O)CSc1cn(CC(=O)N2CCCCCC2)c2ccccc12)C(C)C,2.68%
17,Cc1coc2c(C)c3oc(=O)c(CCC(=O)NCCc4ccccc4F)c(C)c3cc12,6.96%
18,CCc1ccc(CNC(=O)CCc2c(C)nn(-c3ccc(N4CCCC4)nn3)c2C)cc1,17.6%
19,CC(C)c1nnc(N2C(=O)c3oc4ccccc4c(=O)c3C2c2ccccc2F)s1 (centres undefined),-0.201%
20,CCN(CC)c1cc(C)c2cc(NC(=O)/C=C/c3cc(OC)c(OC)c(OC)c3)ccc2n1,-8.12%
21,COc1ccc(C(CNC(=S)NCc2ccccc2)N2CCCC2)cc1 (centres undefined),active: 40.5%
22,O=C(CSc1nccn1Cc1ccc(F)cc1)Nc1nc2ccccc2s1,-3.33%
